Biological target: T1, FimD usher (Escherichia coli (uropathogenic), UniProt P30130 46-878)
T1 construct: also called apo FimD; the usher; source: in 0.05% DDM
T1 sequence: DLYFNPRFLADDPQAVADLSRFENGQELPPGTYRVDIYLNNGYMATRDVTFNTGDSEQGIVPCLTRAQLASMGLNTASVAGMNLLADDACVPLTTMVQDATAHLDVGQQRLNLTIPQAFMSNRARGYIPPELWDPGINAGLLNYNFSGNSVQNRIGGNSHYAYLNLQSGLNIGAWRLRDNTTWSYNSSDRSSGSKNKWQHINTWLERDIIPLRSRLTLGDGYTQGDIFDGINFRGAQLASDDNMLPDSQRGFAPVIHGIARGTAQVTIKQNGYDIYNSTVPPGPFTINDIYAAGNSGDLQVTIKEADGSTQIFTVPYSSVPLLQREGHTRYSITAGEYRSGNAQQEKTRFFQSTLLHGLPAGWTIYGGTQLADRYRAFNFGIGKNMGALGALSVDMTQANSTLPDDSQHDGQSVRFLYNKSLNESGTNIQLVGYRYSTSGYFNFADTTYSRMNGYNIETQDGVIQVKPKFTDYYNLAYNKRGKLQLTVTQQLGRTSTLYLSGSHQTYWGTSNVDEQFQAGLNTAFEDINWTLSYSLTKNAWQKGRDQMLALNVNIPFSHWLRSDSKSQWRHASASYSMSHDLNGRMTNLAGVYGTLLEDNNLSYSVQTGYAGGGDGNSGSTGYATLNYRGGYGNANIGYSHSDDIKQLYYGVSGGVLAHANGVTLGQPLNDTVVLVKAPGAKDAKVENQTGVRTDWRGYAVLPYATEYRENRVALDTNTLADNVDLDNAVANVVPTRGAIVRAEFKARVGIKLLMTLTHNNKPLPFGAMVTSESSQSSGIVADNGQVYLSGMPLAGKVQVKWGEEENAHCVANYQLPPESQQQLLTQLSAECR
Assay: AUC; sedimentation velocity of purified FimD:FimC:FimH at the higher concentrations (> 1 μM, up to 4.3 μM); 20 °C, 42,000 rpm, absorbance optics; 50 mM Tris pH 8.0, 150 mM NaCl, 1 mM EDTA, 0.05% DDM; c(s) by SedFit; Kd of usher dimerisation (dimer to monomers) estimated by integrating the monomer and dimer peaks at 4.3 μM
Details: both partners purified

B1: FimC:FimH chaperone:adhesin complex (complex)
chain 1: GVALGATRVIYPAGQKQEQLAVTNNDENSTYLIQSWVENADGVKDGRFIVTPPLFAMKGKKENTLRILDATNNQLPQDRESLFWMNVKAIPSMDKSKLTENTLQLAIISRIKLYYRPAKLALPPDQAAEKLRFRRSANSLTLINPTPYYLTVTELNAGTRVLENALVPPMGESTVKLPSDAGSNITYRTINDYGALTPKMTGVME
chain 2: [no letters for about 300 residues]
notes: also called chaperone:subunit complex
- binding result: binds

— article PMC3650583, “Dissection of Pilus Tip Assembly by the FimD Usher Monomer” (Journal of Molecular Biology, 2013)
